# According to ChEMBL document CHEMBL4888484, “Replenishing the malaria drug discovery pipeline: Screening and hit evaluation of the MMV Hit Generation Library 1 (HGL1) against asexual blood stage Plasmodium falciparum ,using a nano luciferase reporter read-out” (2022):
# Out of some 150,000 compounds screened, about 540 (0.36%) showed an effect of 50% or more. The list shows a part of the results.
# Test system: Plasmodium falciparum
# Assay: Primary screen in NF54 nanoGlo assay, in single point, at 2uM, 72h; a lower Z score goes with more inhibition
# Assay type: functional, Erythrocyte
# Conditions: timepoint 72 hour
SMILES,% Inhibition [%],Z score
Cc1nc(N)sc1Cc1nc(-c2cccc3c2ccn3C)nn1CCO,-2,0.3
COc1cc([C@@H]2OC(c3cccc(C)c3O)=NN2C(C)=O)ccc1OCc1ccccc1,-1,0.12
CN(C)c1cnn(CC(=O)NC2CCCCCCC2)c(=O)c1,-3,0.69
Cc1noc2nc(C3CC3)cc(C(=O)N3CCN(C)C[C@@H]3C)c12,-2,0.27
CC1(C)O[C@@H]2C[C@@](OCc3cccc(Cl)c3)(C(=O)NCCN3CCOCC3)CC(OCc3ccccc3)[C@@H]2O1 (some centres undefined),-10,1.77
CCCN(CC1CC1)C(=O)CCc1ccc(-c2ccc(C)cc2C)n1-c1ccc(CC#N)cc1,-14,1.84
O=C(CCc1nc(C2CCCC2)no1)N1CCOc2cccc(F)c21,1,-0.24
Cc1ccc(C2CCCC2OC(=O)Cn2ccc(=O)n(C)c2=O)cc1 (centres undefined),0,0.07
O=C(C1CC=CC1)N1CCc2ccccc2C1,23,-2.59
N#Cc1c(NC(=O)c2cc(S(=O)(=O)N3CCCCC3)ccc2Cl)sc2c1CCC2,-45,5.24
Cc1ccn(CCc2nc(C)nn2-c2cccc(C(=O)O)c2)n1,-4,0.5
NC(=O)[C@@H](F)C1CCN(Cc2cc(Cl)sc2Cl)CC1,-5,0.71
N#Cc1cccc(-c2c(-c3ccccc3)ncn2Cc2ccc(CO)cc2)c1,13,-1.84
CCc1cccc(NC(=O)CNC2(CC(=O)OC)CCOCC2)c1,-5,0.62
COc1ccccc1N1CCN(C(=O)c2cc(Cl)sc2Cl)CC1,4,-0.69
Cc1cc(-c2cc([C@H]3CCN(C(=O)C4CC(=O)C4)C3)ccn2)ccc1F,-7,1.32
O=C(NC1(c2noc(CC3CCCC3)n2)CCCCCC1)c1cccc[n+]1[O-],-11,1.37
Cc1nc([C@H](C)NC(=O)CCN2CCCC2)n[nH]1,1,-0.21
N#CCN(CC#N)C(=O)c1ccc(-n2ncc3ccccc32)c(Cl)c1,-30,3.51
CS(=O)(=O)N[C@@H]1COCC[C@@H]1Oc1ccc(F)cc1,-17,1.54
CCN(CC)c1ccc(C(=O)n2nc(C(F)(F)F)nc2N)cn1,2,-0.39
COC(=O)C1=C(C(=O)OC)SC(=C2C(=S)C(C)(C)N(C(=O)Cc3ccccc3)c3ccc(OC)cc32)S1,0,-0.01
CN(C)C[C@H]1CN(CC(=O)NCCOc2ccccc2)CCO1,-8,1.18
CO[C@@H](C)CC(=O)N1CCc2ncccc21,-6,1.01
NC(=NC[C@@H]1CC=CCC1)N1CCCCC1,-8,1.1
CC(C)N1CC[C@H](NCCC(C)(C)C)C1=O,-13,1.63

SMILES,% Inhibition [%],Z score
CCn1nc(COc2ccccc2OC)nc1[C@H](C)N1CCN(C)CC1,-3,0.53
CCOC(=O)c1nc[nH]c1-n1nc(-c2ccc(OC)cc2)cc1C(F)(F)F,-32,3.76
NC(=O)Cc1nc(CC(F)(F)F)n(C2CCCCC2)n1,0,0.02
CCOc1cc(C(=O)N(C)C)ccc1NCc1cc(C)oc1C,-2,0.17
Cc1cc2ncn([C@@H](C)C(=O)N3CCCCCC3)c2cc1C,-8,1.3
CCC1=NO[C@@H](CN2CCN(CC)C(C)(C)C2)C1,-7,1.26
COc1ccc(CCC(=O)N[C@H]2CCOC[C@@H]2O)cc1,-18,3.34
CC[C@@]1(C)CCCN(C(=O)CNS(=O)(=O)CC)CC1,-5,0.42
COc1cc(C(=O)Nc2ccc(-c3ccc(N4CCCCC4)nn3)cc2)cc(OC)c1OC,25,-3.14
CC[C@H](NC1CCN(c2nnc(-c3ccccc3)s2)CC1)c1ccnn1C,-15,1.46
CCc1nccn1CCc1nc(C(C)C)nn1-c1ccncc1C,-15,2.3
CC(C)(C)c1ccc(OCCn2c3ccccc3n3c(=O)c(CCC(=O)O)nnc23)cc1,-8,1.06
Cc1cccc(CN2CCCCCNC(=O)[C@@H]3CCC[C@@H]32)c1,-3,0.35
COc1ccc(C(=O)N2CC(O)(C(F)F)C2)cn1,-9,1.39
COCc1cn([C@@H]2CC[C@H]3CCOc4ccccc4C(=O)N4CCN(C(C)C)C[C@H]4C(=O)NC[C@H]2O3)nn1,-9,1.17
CCN(Cc1cnn(C)c1)c1ccc(C#N)nc1,0,0.05
Cn1nc2c(c1CNC(=O)c1cncc(Br)c1)CCC2,-4,0.57
Cc1cccc(NC(=O)c2c(C)sc3ncnc(N4CCCCC4)c23)c1,41,-5.91
COc1ccc(S(=O)(=O)c2c(C)c(C)n(Cc3ccco3)c2NC(=O)C(C)C)cc1,-13,1.68
Cc1nc(-c2ccncc2)nc(NCCN2C(=O)Cc3ccccc32)c1C,-6,1.14
CCC(C)(C)c1ccc(OCCCCNC(=O)c2cc(-c3ccccc3F)nn2-c2ccc(C)cc2C)c(C(C)(C)CC)c1,-14,1.63
Cc1nc(-c2ccc(CNC(=O)c3cccc(CCC(C)(C)O)c3)cc2)no1,-2,0.25
O=S(=O)(N[C@@H](CCO)c1cccs1)c1cc2cc(Cl)ccc2s1,0,0.05
O=C(c1cnn[nH]1)N1CCC[C@H](c2nc(-c3cccnc3)no2)C1,-15,3.14
Cc1nn(Cc2ccccc2)c2c1C(c1cccc(Cl)c1Cl)c1c(C)nn(Cc3ccccc3)c1O2,42,-6.02
O=C(NCc1cccc(-n2ccnc2)c1)c1ccc2c(c1)COCO2,-9,1
